Out of some 48,000 compounds screened, about 1,200 (2.5%) were called active. Not shown: some 2% with an inconclusive outcome.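 How the source made its calls: active means activation of at least 60% and not above a set upper limit (about 1 call in 100 departs from these limits); inconclusive means activation of 40% to 60%, or above that upper limit; inactive means activation under 40%.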 The list shows a part of the results.

The target of the experiment is Probable G-protein coupled receptor 32 (Homo sapiens) (UniProt O75388). As to the kind of experiment: qHTS for Agonists of Human Resolvin D1 Receptor DRV1. Further: 0% is about no effect. Particulars: CHO-K1 GPR32 beta-arrestin PathHunter luminescence, 90 min; at 76.9 µM; active compounds read high; zero percent set by DMSO-only wells. The method, boiled down: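 Readings come from a cell-based beta-arrestin complementation format: CHO-K1 GPR32 stable cells (2,500/well) treated 90 min with compounds, then beta-Gal substrate added for 1 h before chemiluminescence imaging.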
Sequence of UniProt O75388 (O75388 whole entry, looked up): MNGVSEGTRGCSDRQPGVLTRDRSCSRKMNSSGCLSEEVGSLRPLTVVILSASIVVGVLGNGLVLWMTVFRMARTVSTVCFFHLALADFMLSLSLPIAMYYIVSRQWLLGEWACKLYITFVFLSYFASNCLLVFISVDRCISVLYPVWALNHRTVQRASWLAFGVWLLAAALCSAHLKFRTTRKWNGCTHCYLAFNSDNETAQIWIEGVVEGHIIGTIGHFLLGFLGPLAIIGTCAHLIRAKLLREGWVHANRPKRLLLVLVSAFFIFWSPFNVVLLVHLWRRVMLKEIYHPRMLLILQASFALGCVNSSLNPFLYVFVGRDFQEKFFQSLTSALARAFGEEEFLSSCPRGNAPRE
On the technique in general: In qHTS, concentration-response curves come from the screen itself.
For the compound `COc1ccc2nc(N(Cc3cccnc3)C(C)=O)sc2c1`, the activation is inactive: -14.5%. In the case of `CCc1ccc(-n2c(=O)c3cccnc3n2CC(=O)NCc2ccccc2)cc1`, the activation was inactive: -29%.

With `COC(=O)c1ccc(NC(=O)CSc2ccc(-c3sc(-c4ccccc4)nc3C)nn2)cc1`, the activation was inactive: -12.6%. As to `CCC(Oc1ccccc1-c1nnc(-c2ccccc2)o1)C(=O)Nc1ccc(C(C)=O)cc1` (stereo unspecified), the activation was inactive: -3.74%. As for `COC(=O)c1cc2oc(C)cc2n1Cc1ccc(Br)cc1F`, the activation was inactive: -31.7%. On to `COc1ccc(Nc2ncc3c(n2)CCN(Cc2ccccc2C)C3)c(OC)c1`, for which the activation was inactive: -2.81%.

Regarding `O=C(NC1CC(=O)N(c2ccc(F)cc2)C1)c1ccco1` (stereo unspecified), the activation was inactive: -3.77%. For `COc1ccccc1C1CC(=O)NC(C)=C1C(=O)OC1CCCCCC1` (stereo unspecified) the value was inactive: 4.8%; for `CCOC(=O)c1cc(-c2ccc(OC)cc2)n(CCC(=O)Nc2cccc(C)c2C)c1C`, inactive: -25.6%; for `CCCCc1nn2c(=O)cc(COC(=O)c3ccc4c(c3)OCO4)nc2s1`, inactive: -5.23%. The value for `COC(=O)c1ccccc1NC(=O)Cn1nnc(-c2ccc(OC)cc2)n1` was inactive: -0.866%; that for `COc1cc(OC)cc(-n2c(=O)c3ccccc3n(Cc3ccccc3C#N)c2=O)c1` was inactive: -2.36%; that for `COc1ccccc1C(=O)NCC(c1ccc(N(C)C)cc1)N1CCc2ccccc21` (stereo unspecified) was inactive: -34.5%. The value for `O=C(CCCn1c(=O)[nH]c2ccc(Br)cc2c1=O)N1CCN(c2cccc(Cl)c2)CC1` was inactive: 46.5%; that for `CCOc1ccc(-c2cn3c(n2)sc2cc(C(=O)NCCCN4CCCCC4)ccc23)cc1` was inactive: -12.5%. In the case of `CC1=C(C(=O)Nc2ccccc2)C(C(C)C)n2nc(SCc3ccccc3C)nc2N1` (stereo unspecified), the activation was inactive: -9.76%. Turning to `CCC(=O)Nc1cc(-c2cn3cccnc3n2)ccc1OC`, the activation was inactive: -4.9%. Regarding `N=C(N)c1ccc(OCCCCCOc2ccc(C(=N)N)cc2)cc1` (tested in a mixture with another compound), the activation was inactive: -7.87%. For `CCc1ccc(NC(=O)Cn2nc(C(F)(F)F)c3c2CCCC3)cc1` the value was inactive: 6.69%; for `COc1cc(NC(=O)c2ccc(-c3nc(CSc4ccccc4)c(C)o3)cc2)cc(OC)c1`, inactive: -16.3%. The value for `O=C(Cn1ncn2cccc2c1=O)NCc1cccc(Br)c1` was inactive: -5.26%; that for `COc1ccccc1Cc1nc2ccccc2nc1SCC(=O)Nc1c(C)cccc1C` was inactive: -3.84%; that for `Cc1c(Cl)cccc1NC(=O)Cn1c(=O)cc(C)c2c(C)nn(-c3cccc(F)c3)c21` was inactive: -11.1%. `COc1ccc(NC(=O)c2cc(-c3ccc(F)cc3)no2)cc1OC`: the activation was inactive: 1.37%. The value for `CCCNC(=O)Cn1nc(-c2ccc(C)cc2)c2cnc3ccc(CC)cc3c21` was inactive: 1.56%.

`Cc1cc(NC(=O)c2ccco2)cc(-c2nc3ccccc3o2)c1O`: the activation is inactive: 27.3%. For `CN(C)CCN(Cc1ccccc1)S(=O)(=O)c1csc(C(N)=O)c1` the value was inactive: -9.96%; for `CCn1c(C)c(C)c2cc(C(=O)N3CCN(c4ccccc4)CC3)ccc21`, inactive: -33.3%; for `CCN(C(=O)CCS(=O)(=O)c1cc2c(cc1C)NC(=O)CO2)c1cccc(C)c1`, inactive: 13.9%.

Consider `COCCCNC(=O)CCCn1c(=O)c2ccccc2n(CC(=O)Nc2ccc(C)cc2Cl)c1=O`, for which the activation was inactive: -5.26%.

In the case of `Cn1c(=O)c2c(nc(N3CCOCC3)n2Cc2ccccc2Cl)n(C)c1=O`, the activation was inactive: 9.15%. The value for `O=C(NCCc1ccc(Cl)cc1)c1nnc(Cc2ccc(Cl)cc2Cl)o1` was inactive: 0.637%. For `CC(C)Cn1c(-c2ccccc2Cl)nc2ccccc21` the value was inactive: 14.4%; for `CCOc1ccc(-c2c(C)nn3c(C)c(C(=O)NCCN(C)C)cnc23)cc1OCC`, inactive: -2.74%; for `O=C(CSc1nncn2c1cc1occc12)Nc1ccc(F)c(Cl)c1`, inactive: -2.83%. For `COc1ccc(N(CC(=O)NCCc2ccc(C)cc2)S(=O)(=O)c2c(C)nn(C)c2C)cc1` the value was inactive: -5.05%. Regarding `CC(C)Cn1c(CN2CCN(c3cccc(Cl)c3)CC2)nc2c1c(=O)[nH]c(=O)n2C`, the activation was inactive: 2.35%. Take `COc1cc(OC)cc(-c2nnc(SCC(=O)c3ccc([N+](=O)[O-])cc3)o2)c1`: the activation is inactive: 42.1%. The value for `O=C(NCCc1ccc(Cl)cc1)c1ccc2nc(CCc3ccccc3)oc2c1` was inactive: -8.33%. The value for `Cc1nc(S(=O)(=O)N2CCN(c3cccc(Cl)c3)CC2)cn1C` was inactive: -0.439%; that for `COc1cc(Nc2nn(-c3ccc(OC(F)(F)F)cc3)nc2C(C)=O)cc(OC)c1` was inactive: -8.4%; that for `COc1ccc(C)cc1NC(=O)c1nnn(CC(=O)Nc2c(C)cccc2C)c1N` was inactive: 1.64%.

With `Cc1ccc(C)c(S(=O)(=O)c2nnn3c2nc(NC2CCCC2)c2sccc23)c1`, the activation was inactive: -27.4%. The value for `Cc1ccc(S(=O)(=O)c2cn(Cc3ccccc3)c3cc(N4CCCC4)c(F)cc3c2=O)c(C)c1` was inactive: -18.1%; that for `CSc1nnc(NC(=O)c2cc(=O)c3cc(C)c(C)cc3o2)s1` was inactive: -2.4%. The value for `CCCCN(CC)C(=O)c1ccc2c(c1)NC(=O)c1ccccc1S2` was inactive: 50%. The value for `CCc1cccc(NC(=O)c2cc3c(=O)oc4ccc(C)cc4c3s2)c1` was inactive: -4.69%. Take `COc1ccc(CNC(=O)C(CC(C)C)NS(=O)(=O)c2ccc3c(c2)oc(=O)n3C)cc1` (stereo unspecified): the activation was inactive: -0.0003%. As to `COc1ccc(OC)c([C@@H]2Nc3ccc(C(=O)O)cc3[C@@H]3C=CC[C@@H]32)c1`, the activation was inactive: -12.3%.

`Cc1cccc(C)c1NC(=O)C(=O)NCC(c1ccc2c(c1)OCO2)N1CCN(C)CC1` (stereo unspecified): the activation is inactive: 4.93%.

On to `CCOc1c(CNCCSc2nnnn2C)cccc1OC`, for which the activation is inactive: 7.61%.

For the compound `O=c1c(-c2ccccc2)c1-c1ccccc1`, the activation was inactive: 18.9%. The value for `CCc1cccc(NC(=O)C2CCCN2S(=O)(=O)c2ccc3nc(-c4ccccc4)[nH]c3c2)c1` (stereo unspecified) was inactive: -3.73%; that for `Cc1ccc(Cn2c(=O)n(Cc3ccc(C(=O)NC4CCN(Cc5ccccc5)CC4)cc3)c(=O)c3ccccc32)cc1` was inactive: -14.1%; that for `CC(=O)c1ccc(NC(=O)CCn2cccn2)cc1` was inactive: -3.6%. For `O=C(c1ccc(Br)cc1)N(Cc1ccco1)c1ccccn1` the value was inactive: -10.7%. On to `CN1C(=O)Cc2cc(S(=O)(=O)NCc3ccccc3Cl)ccc21`, for which the activation was inactive: -15%. Take `Cc1ccc2oc(C(=O)N3CCC(c4nc5ccccc5s4)CC3)c(C)c2c1`: the activation was inactive: -30.1%. For `COc1ccc(N(CC(=O)N2CCCCC2)S(=O)(=O)c2ccc(OC)c(OC)c2)cc1` the value was inactive: -5.02%; for `CCc1ccc(NC(=O)Cn2c(=O)n(-c3cccc(OC)c3)c(=O)c3c(C)c(C(=O)N(C)C)sc32)cc1`, inactive: 2.81%.

Take `Cc1ccc(-n2c(C)nc3c(cnn3-c3ccccc3)c2=O)cc1`: the activation is inactive: -2.49%. `CCCc1ccc(OCc2ccc(C(=O)Nc3ccccc3C(=O)OC)o2)cc1`: the activation was inactive: -7.63%. For `CCc1ccc(CNC(=O)c2cccc(-n3c(C)nc4cccnc43)c2)cc1` the value was inactive: 25.7%; for `COc1ccc(CCNC(=O)c2ccc3c(c2)nc2n3CCCCC2)cc1OC`, inactive: -13.9%; for `CCCn1cnc2cc(NC(=O)c3cc(OC)c(OC)c(OC)c3)ccc21`, inactive: -16.7%. With `Cc1ccc(CNS(=O)(=O)c2c(C)nc3sc(C)cn3c2=O)cc1`, the activation was inactive: -11.5%. For `Cc1ccc(Cl)cc1NC(=O)CN1C(=O)c2ccccc2Sc2ncccc21` the value was inactive: -3.62%; for `Cc1cccc(N2CCN(Cc3nnc(-c4cccc(Br)c4)o3)CC2)c1C`, inactive: -2.75%; for `CCCOC(=O)c1cccc(NC(=O)CSc2nnc3cc(C)c4ccccc4n23)c1`, inactive: -4.91%. The value for `CC(=O)c1ccc(NC(=O)c2nc(-c3ccccc3)n(-c3ccc(C)cc3)n2)cc1` was inactive: -39.4%; that for `O=C(NCc1cccc(Cl)c1)C1CCCN(c2nn3cc(-c4ccc(F)cc4)nc3s2)C1` (stereo unspecified) was inactive: -16%. The value for `Clc1ccc2nc(-c3ccc(N4CCOCC4)cc3)c(Nc3ccccc3)n2c1` was inactive: -31.8%; that for `COc1ccccc1NC(=O)Cn1c(=O)oc2cc(S(=O)(=O)NCc3ccccc3)ccc21` was inactive: 14.8%; that for `Cc1cccc(NC(=O)c2ccc3oc(=O)c(S(=O)(=O)c4ccc(F)cc4)cc3c2)c1C` was inactive: -1.91%. Regarding `CCOc1ccc(CNc2cc(C)nc3nc(-c4cccc(C)c4)nn23)cc1OC`, the activation is inactive: -30.9%. In the case of `CCc1ccccc1N(C)C(=O)c1nn(-c2ccc(OC)cc2)c(=O)c2c1c1ccccc1n2C`, the activation was inactive: -6.19%. For `CCOc1ccc(S(=O)(=O)c2cc3cccc(OCC)c3oc2=O)cc1`, the activation was inactive: 7.56%.

For `CC1CCc2c(sc3nnn(Cc4ccccc4Cl)c(=O)c23)C1` (stereo unspecified), the activation is inactive: -6.24%.

For `COc1ccccc1OCc1nc2ccccc2n1Cc1ccccc1`, the activation is inactive: -13.4%. Turning to `CCOc1ccccc1C1C(C(=O)Nc2ccccc2)=C(C)Nc2nc(-c3ccccc3)nn21` (stereo unspecified), the activation is inactive: 23.4%. For `CCCCn1c(SCC(=O)c2ccccc2)nc2sc3c(c2c1=O)CCCC3` the value was inactive: 13.6%. Regarding `CCOC(=O)c1cc(C)n(CC2CCC(C(=O)Nc3cccc(C(C)=O)c3)CC2)c1C` (stereo unspecified), the activation is inactive: -7.81%.

As for `CCOc1ccccc1CNCc1c(C(=O)O)n(Cc2ccccc2)c2cc(OC)ccc12`, the activation was inactive: 38.1%.

Take `Cc1ccc(S(=O)(=O)Nc2ccc(-c3ccc(N4CCCCCC4)nn3)cc2)c(C)c1`: the activation is inactive: -2.05%. On to `CCOc1ccccc1Oc1ncnc2c1oc1ccccc12`, for which the activation is inactive: -10.6%. For `CC1CCC(NC(=O)c2ccc3c(c2)N(Cc2ccccc2F)C(=O)c2ccccc2S3(=O)=O)CC1` (stereo unspecified) the value was inactive: -0.869%.

Values taken from PubChem BioAssay AID1346428 (National Center for Advancing Translational Sciences (NCATS), 2018).
